Tests used:
[1] = target: the molecule itself; experiment: SEC-MALS; 1 mg/mL protein injected on Superdex 200 Increase 10/300 GL at 10 °C; 20 mM TRIS, 300 mM NaCl, 1 mM DTT, pH 8.0; without CaCl2; stoichiometric ratio = MALS molecular weight / theoretical monomer mass
[2] = target: the molecule itself; experiment: SEC-MALS; 1 mg/mL protein injected on Superdex 200 Increase 10/300 GL at 10 °C; 20 mM TRIS, 300 mM NaCl, 1 mM DTT, pH 8.0; with 25 mM CaCl2; stoichiometric ratio = MALS molecular weight / theoretical monomer mass

B1: human STIM2-OASF (Orai-activating STIM fragment of stromal interaction molecule-2, […]) (domain or fragment)
chain: not shown
notes: the methods print […]; Cloned into pET-28a; C-terminal limit printed as 496 in the results and 495 in the methods; 496 fits the […] range printed for the 2β form (8 residues longer); A few vector residues probably remain after thrombin cleavage (surmise); source: E. coli BL21 (DE3), purified under denaturing conditions (guanidine-HCl, nickel-NTA), renatured, thrombin-cleaved, SEC
[1]
  stoichiometry N: 1.98
[2]
  stoichiometry N: 1.99

B2: human STIM1-OASF (Orai-activating STIM fragment of stromal interaction molecule-1, […]) (domain or fragment)
chain: not shown
notes: Expressed from pET-28a; A few vector residues probably remain after thrombin cleavage (surmise); source: E. coli BL21 (DE3), purified under denaturing conditions (guanidine-HCl, nickel-NTA), renatured, thrombin-cleaved, SEC
[1]
  stoichiometry N: 2.18
[2]
  stoichiometry N: 2
